Experimental data from PubChem BioAssay AID2060510 (Molecular Pharmacology Branch, DTP, NCI, 2025).
Not every entry of the source has a single result; some have several. This is not the full list of results. The source may hold further records. Values given together are repeated measurements across runs, samples, wells, individuals or studies. Counts like (3×) stand for listed records that agree.

System: 439559-082-T-J2-PDC spheroids viability
Test: Anticancer human tumor 439559-082-T-J2-PDC patient-derived colon adenocarcinoma cell line growth inhibition [GQUAD]
Details: stronger effect = lower value
Text: DNA G-quadruplex Stabilizer Agents in Combinations in Complex Spheroids
A high-throughput screen of multi-cell type tumor spheroids was designed to identify active combinations of DNA G-quadruplex stabilizer agents and targeted small molecules. Complex spheroids include a stromal component modeled by human endothelial cells (HUVEC) and fibroblasts modeled by human mesenchymal stem cells (MSCs). The concentration ranges selected for each drug and investigational agent were based upon clinically achievable concentrations if the clinical Cmax of the agent was known.
Compounds. The drugs and investigational agents: pidnarulex (CX-5461; NSC782164), APTO-253 (NSC789042), BRACO-19 (NSC847499), peposertib (NSC802822), ceralasertib (NSC780249), elimusertib (NSC800525), camonsertib (NSC841442), AZD-1390 (NSC803789), olaparib (NSC753686), talazoparib (NSC767125), ART-558 (NSC835418), sotorasib (NSC818433), MRTX-1133 (NSC836407), SN-38 (NSC673596), topotecan (NSC609699), etoposide (NSC141540), doxorubicin (NSC123127), gemcitabine (NSC613327), 5-fluorouracil (NSC19893), paclitaxel (NSC125973), vemurafenib (NSC761431), panobinostat (NSC761190), R-306465 (JNJ-16241199; NSC773264), adavosertib (NSC754352), TP-3654 (NSC805149), carboplatin (NSC241240), KSQ-4279 (NSC840948), and staurosporine (NSC755774) were obtained from the National Cancer Institute (NCI) Developmental Therapeutics Program Chemical Repository (34). The FDA-approved anticancer drug set is available from the NCI Developmental Therapeutics Program. […] The stock solutions were prepared in dimethyl sulfoxide (DMSO, Sigma-Aldrich, St. Louis, MO, cat. D2650) at 800-fold the tested concentration and stored at -70 degrees C prior to their use. All drugs and investigational agents were tested over a range starting from a high concentration at or near the clinical Cmax and decreasing in half-log increments. If the clinical Cmax for an agent had not been determined, the highest concentration tested was 10 microM.
2.3 Cell Culture. All cells were maintained in an incubator at 37 degrees C and 5% CO2 with 95% humidity. The PDC lines were cultured according to standard operating procedures established by the NCI PDMR. All PDCs were thawed and cultured in Matrigel-coated flasks prepared with a working solution of 1X Ham's F-12 nutrient mix, without supplementation (Invitrogen, cat. 11765054), 100 U/mL penicillin-streptomycin (Invitrogen, cat. 15140122), and 2.5% Matrigel (Corning Inc., cat. 354248) for the first three passages. The 857933-349-R-J2-PDC line was cultured in 6C/Colon 1B media, which includes advanced DMEM/F-12 (Thermo Fisher Scientific, cat. 12634028), 10 mM HEPES (Thermo Fisher Scientific, cat. 15630080), 1X GlutaMAX supplement (Thermo Fisher Scientific, cat. 35050061), 0.1 mg/mL primocin (InvivoGen, cat. ant-pm-2), 10% defined fetal bovine serum, heat inactivated (HyClone Laboratories Inc., cat. SH30070.03HI), 50% L-WRN conditioned media (ATCC, cat. CRL-3276), 1.25 mM N-Acetyl-L-cysteine (Sigma-Aldrich, cat. A9165), 10 mM nicotinamide (Sigma-Aldrich, cat. N0636), 1X B-27 supplement (Thermo Fisher Scientific, cat. 17504044), 1X N-2 supplement (Thermo Fisher Scientific, cat. 17502048), 10 microM Y-27632 dihydrochloride (Tocris Bioscience, cat. 1254), and 50 ng/mL human EGF recombinant protein (Thermo Fisher Scientific, cat. PHG0311). The 485176-168-R4-J1-PDC line was cultured in Panc media, which includes all 6C/Colon 1B media components plus 100 ng/mL human FGF-10 (Thermo Fisher Scientific, cat. 100-26), 500 nM SB-431542 (Selleckchem, cat. S1067), and gastrin (Tocris, cat. 3006).
[…]
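Note: spheroids exposed to the agents for 7 days before readout; percent of luminescence signal in DMSO vehicle wells taken as 100% viability.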

SMILES: CC(=O)O[C@H]1C(=O)[C@@]2(C)[C@H]([C@H](OC(=O)c3ccccc3)[C@]3(O)C[C@H](OC(=O)[C@H](O)[C@@H](NC(=O)c4ccccc4)c4ccccc4)C(C)=C1C3(C)C)[C@]1(OC(C)=O)CO[C@@H]1C[C@@H]2O
- viability, T/C (compound alone 1 µM): 74.4%, 2.22%, 59.1%
- viability, T/C (compound alone 3.16 µM): 43.8%, 0.34%, 45.7%
- viability, T/C (compound alone 10 µM): 32.7%, 0.31%, 30.6%

SMILES: O=C(NO)c1cnc(N2CCN(S(=O)(=O)c3ccc4ccccc4c3)CC2)nc1
- viability, T/C (compound alone 1 µM): 12.6%, 59.9%, 1.75%
- viability, T/C (compound alone 3.16 µM): 0.27%, 40.1%, 0.31%
- viability, T/C (compound alone 10 µM): 0.28%, 31%, 0.3%

SMILES: CN(C)c1ccc(Nc2c3ccc(NC(=O)CCN4CCCC4)cc3nc3cc(NC(=O)CCN4CCCC4)ccc23)cc1
- viability, T/C (compound alone 1 µM): 91.1, 89, 117, 103 (2×), 107, 101, 100, 105, 102, 97.2, 98.1%
